The record followed here is patent US20190194276A1 (MAYO FOUNDATION FOR MEDICAL EDUCATION AND RESEARCH, published 2019).

The target of the experiment is T1, endogenous IQGAP1 (human, UniProt P46940 2-1657).
T1 construct: also called cellular IQGAP1
In words: GST pull-down from DU145 whole cell lysate, Western blot. (In general: A western blot detects proteins with antibodies after separation by electrophoresis.)

T1 sequence (P46940 2-1657 limits assumed): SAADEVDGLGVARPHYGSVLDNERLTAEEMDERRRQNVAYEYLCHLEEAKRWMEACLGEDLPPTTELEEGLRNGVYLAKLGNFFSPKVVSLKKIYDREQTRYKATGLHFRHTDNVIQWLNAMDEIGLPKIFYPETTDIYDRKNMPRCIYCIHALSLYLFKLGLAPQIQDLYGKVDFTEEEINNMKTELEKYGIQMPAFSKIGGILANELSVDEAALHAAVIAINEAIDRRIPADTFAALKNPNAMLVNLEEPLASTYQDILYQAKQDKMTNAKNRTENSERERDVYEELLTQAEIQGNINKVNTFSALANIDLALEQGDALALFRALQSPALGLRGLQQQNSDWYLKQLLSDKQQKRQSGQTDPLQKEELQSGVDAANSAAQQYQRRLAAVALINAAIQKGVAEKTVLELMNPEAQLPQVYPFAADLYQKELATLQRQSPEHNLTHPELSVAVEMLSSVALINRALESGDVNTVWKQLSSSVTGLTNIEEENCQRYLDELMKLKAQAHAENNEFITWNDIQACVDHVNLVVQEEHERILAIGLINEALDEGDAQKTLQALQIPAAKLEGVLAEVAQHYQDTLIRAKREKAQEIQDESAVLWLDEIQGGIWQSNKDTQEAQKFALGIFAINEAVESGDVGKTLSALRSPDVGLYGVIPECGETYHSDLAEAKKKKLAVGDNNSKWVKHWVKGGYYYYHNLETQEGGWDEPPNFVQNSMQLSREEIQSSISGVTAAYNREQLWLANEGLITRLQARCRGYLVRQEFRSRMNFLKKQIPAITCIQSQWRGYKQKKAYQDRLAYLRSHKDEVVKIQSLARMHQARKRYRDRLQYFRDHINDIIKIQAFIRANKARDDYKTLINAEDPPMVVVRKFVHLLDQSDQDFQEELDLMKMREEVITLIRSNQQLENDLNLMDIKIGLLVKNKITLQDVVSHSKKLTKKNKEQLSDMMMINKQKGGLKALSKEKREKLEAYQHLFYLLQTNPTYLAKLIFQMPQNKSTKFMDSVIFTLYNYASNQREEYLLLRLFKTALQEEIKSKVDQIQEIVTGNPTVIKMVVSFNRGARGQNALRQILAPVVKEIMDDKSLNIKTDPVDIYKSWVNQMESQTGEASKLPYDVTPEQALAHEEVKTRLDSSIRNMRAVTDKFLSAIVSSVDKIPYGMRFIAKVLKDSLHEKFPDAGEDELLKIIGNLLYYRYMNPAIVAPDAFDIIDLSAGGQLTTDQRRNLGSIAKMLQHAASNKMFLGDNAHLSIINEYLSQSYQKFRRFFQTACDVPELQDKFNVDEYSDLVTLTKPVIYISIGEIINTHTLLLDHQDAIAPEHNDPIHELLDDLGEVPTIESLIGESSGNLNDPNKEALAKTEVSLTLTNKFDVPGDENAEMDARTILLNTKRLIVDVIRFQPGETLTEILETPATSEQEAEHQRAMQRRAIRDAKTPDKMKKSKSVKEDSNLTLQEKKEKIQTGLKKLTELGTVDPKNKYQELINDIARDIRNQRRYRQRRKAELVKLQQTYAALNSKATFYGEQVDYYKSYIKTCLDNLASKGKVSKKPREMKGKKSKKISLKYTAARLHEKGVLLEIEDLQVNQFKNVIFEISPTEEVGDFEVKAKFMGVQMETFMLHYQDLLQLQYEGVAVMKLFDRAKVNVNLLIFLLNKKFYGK

B1: GST (other)
chain: not shown
notes: Control protein of the GST pull-down; also called glutathione-S-transferase
On to B1, for which the binding result was “no binding”.
